From PubChem BioAssay AID540317 (National Center for Advancing Translational Sciences (NCATS), 2011)
Several values for one entry are separate records, joined by “and”; a condition that tells them apart may be missing. Equal values may be shown once. Hit rate of the full screen: of about 390,000 compounds, about 2,200 (0.56%) were called active. Inconclusive results, whose numbers are uncertain, are shown with a selection of clear calls. Calls follow the shape of the dose curve; as a rule, active = well fitted inhibition curve with a large enough effect; inconclusive = small, poorly fitted or top-dose-only effect; inactive = no such curve, though single readings can be large or run the other way. Where the call is inconclusive, the potency comes from a doubtful curve fit.

Target: Chromobox protein homolog 1 (Homo sapiens) (UniProt P83916)
Chain of UniProt P83916 (P83916 whole entry, looked up): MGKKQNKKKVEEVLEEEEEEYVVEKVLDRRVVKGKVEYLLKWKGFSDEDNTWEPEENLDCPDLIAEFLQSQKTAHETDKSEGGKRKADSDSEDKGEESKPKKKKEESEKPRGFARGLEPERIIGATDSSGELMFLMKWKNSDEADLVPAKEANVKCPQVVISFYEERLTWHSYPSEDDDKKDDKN
Assay: HTS for Inhibitors of HP1-beta Chromodomain Interactions with Methylated Histone Tails; also: nearly all actives have a fitted effect of over 70% in size
Conditions: AlphaScreen HP1-beta / biotin-H3K9me3 peptide binding; series mostly up to 114 µM; activity change, negative = inhibition: at the top concentration
Procedure, shortened: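 AlphaScreen: HP1-beta (50 nM) preformed 30 min with biotin-H3(1-18)K9me3 peptide (50 nM) in PBS pH 7.4, 0.01% Tween-20. Compound added for 30 min at RT, then streptavidin donor/nickel chelate acceptor beads (10 ug/mL) for 30 min.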
Potency is read from the fitted curve at half-maximal effect; tags tell the direction and shape of the fitted curve.

| SMILES | activity change, negative = inhibition | Potency |
| --- | --- | --- |
| Cc1ccc(N2CCn3c2nc2c3c(=O)n(C/C=C/c3ccccc3)c(=O)n2C)cc1C | inactive: -19% |  |
| CCOc1cc(N2CCOCC2)c(OCC)cc1NC(C)C(=O)N1CCN(CC)CC1 (stereo not given) |  | inconclusive: 10 µM [inhibitor, full curve, poor fit] |
| Cc1cc(N2CCN(C)CC2)ccc1NC(=O)c1ccc(-c2ccc(Cl)cc2)o1 |  | inconclusive: 50.1 µM [inhibitor, partial curve, poor fit] |
| COc1ccc(NC(=O)CCCSc2ccccc2)cc1 | inactive: 44.6% |  |
| O=[N+]([O-])c1cc(Cl)ccc1N1CCN(c2cccc(C(F)(F)F)c2)CC1 |  | inconclusive: 35.5 µM [inhibitor, partial curve] |
| C=C(C)C(=O)Nc1cccc(C2=NOC3(C2)C[C@H](C(N)=O)N(C(=O)c2ccccc2C(=O)c2ccccc2)C3)c1 (stereo not given in full) |  | inconclusive: 3.98 µM [inhibitor, full curve, poor fit] |
| CCCNC(=O)c1cc(-c2ccccc2)c(N2CCCCC2)s1 | inactive: 38.1% |  |
| CC1CN(c2c3c(nc4ncnn24)CCCC3)CC(C)O1 (stereo not given) | inactive: 37.1% |  |
| COc1ccc(Cl)cc1N1C(=O)C2CCCN2C1c1sccc1C (stereo not given) |  | inconclusive: 39.8 µM [inhibitor, single point] |
| Cn1cnnc1Sc1ccc(C(=O)NCCC23CC4CC(CC(C4)C2)C3)cc1[N+](=O)[O-] |  | inconclusive: 22.4 µM [inhibitor, partial curve, poor fit] |
| Cc1cc(N2C(=O)C(O)=C(C(=O)c3cc4ccccc4o3)C2c2ccc([N+](=O)[O-])cc2)no1 (stereo not given) | inactive: 5.5% |  |
| COc1ccc(OC)c(NC(=O)Cc2csc(NC(=O)Nc3ccccc3OC)n2)c1 | inactive: -21.3% |  |
| COC(=O)c1ccc(Oc2nc(Nc3ccc(C)c(C)c3)nc(N(C)C)n2)cc1 | inactive: 14.3% |  |
| CCc1nn(C(CC)C(=O)NCc2cccc(OC)c2)c(=O)c2cc3occc3n12 (stereo not given) | inactive: 12.6% |  |
| CC(OC(=O)C1=Cc2ccccc2OC1)C(=O)NCC1CCCO1 (stereo not given) |  | inconclusive: 39.8 µM [inhibitor, single point] |
| COc1cccc(/C=C2\SC(=S)N(CCCC(=O)N(CCO)c3ccccc3)C2=O)c1 | inactive: -22.7% |  |
| O=S(=O)(Oc1ccccc1C(=S)N1CCOCC1)c1ccc(Cl)cc1 |  | inconclusive: 22.4 µM [inhibitor, full curve] |
| Oc1ccc(N2CCN(C(c3ccc(Cl)cc3)c3nnnn3Cc3ccc(F)cc3)CC2)cc1 (stereo not given) |  | inconclusive: 39.8 µM [inhibitor, partial curve] |
| CCOC(=O)C1CCCN(S(=O)(=O)c2cc3[nH]c(=O)c(=O)[nH]c3cc2C)C1 (stereo not given) | inactive: 38% |  |
| O=C(c1ccc(-c2ccccc2Cl)o1)N1CCCCCCC1 |  | inconclusive: 35.5 µM [inhibitor, partial curve] |
| COc1ccccc1NCC(=O)N/N=C(\C)c1cccs1 |  | inconclusive: 28.2 µM [inhibitor, full curve] |
| COC(=O)C1=COC(C)C2CN3CCc4c([nH]c5ccccc45)C3CC12 (stereo not given) | inactive: -1.06% |  |
| COc1cc(OC)c2c(-c3ccccc3)cc(=O)oc2c1C(CC(=O)N1CCN(c2ccccc2)CC1)c1ccc(N(C)C)cc1 (stereo not given) |  | inconclusive: 11.2 µM [inhibitor, full curve, poor fit] |

| SMILES | activity change, negative = inhibition | Potency |
| --- | --- | --- |
| Cc1ccccc1CNC(=O)Cc1ccc(NC(=O)N2CCCCc3ccccc32)cc1 |  | inconclusive: 89.1 µM [inhibitor, partial curve, poor fit] |
| CC1=CC(=Nc2c(C)n(C)n(-c3ccccc3)c2=O)C=C(C)C1=O |  | inconclusive: 35.5 µM [inhibitor, single point] |
| CCOc1ccc(C(=O)c2cn(CC(=O)Nc3cccc(OC)c3)c3cc4c(cc3c2=O)OCCO4)cc1 | inactive: 39.9% |  |
| CCCC[N+](C)(C)CCC(=O)NC(C)(C)CS(=O)(=O)[O-] |  | inconclusive: 89.1 µM [inhibitor, single point] |
| S=C1Cc2ccccc2N1 |  | inconclusive: 31.6 µM [inhibitor, partial curve] |
| CCOc1ccc(-c2nc(C)c(C(C)=O)n2O)cc1 | inactive: 1.55% |  |
| Nc1cc(C(=O)O)ccc1Sc1ccccc1C(=O)O | inactive: -7.75% |  |
| N#Cc1nc(-c2ccc(OCc3ccccc3)cc2)oc1NCCCn1ccnc1 |  | active: 44.7 µM |
| Cc1c(-c2ccccc2)sc(N)c1C(=O)N1CCOCC1 |  | inconclusive: 70.8 µM [inhibitor, single point] |
| CCN1CCCC1CNC(=O)Cn1cc(C)c(=O)[nH]c1=O (stereo not given) |  | inconclusive: 39.8 µM [inhibitor, single point] |
| N#Cc1c(NC(=O)Cn2nc(C(F)(F)F)c3c2CCCC3)sc2c1CCC2 |  | active: 31.6 µM |
| COc1ccc(NC(=S)Nc2cc(-c3ccccc3)[nH]n2)cc1Cl |  | inconclusive: 35.5 µM [inhibitor, partial curve] |
| CC(=O)CC[N+](C)(C)C |  | active: 79.4 µM |
| COc1nc2ccccc2nc1CCC(=O)O | inactive: 5.4% |  |
| CC(NC(=O)C1CCN(S(=O)(=O)c2ccccc2)CC1)c1ccccc1 (stereo not given) |  | inactive and inconclusive: 15.8 µM [inhibitor, partial curve, poor fit] |
| COc1cc(N2CCCC2)c(OC)cc1/C=C(/C#N)c1ccc(Br)cc1 |  | inconclusive: 8.91 µM [inhibitor, full curve, poor fit] |
| COC(=O)CCC(=O)NC(=S)Nc1ccc(S(=O)(=O)Nc2cc(OC)nc(OC)n2)cc1 | inactive: 29.1% |  |
| Cc1ccc(-c2nnn(CC(=O)N(CCO)C(C(=O)NC3CCCCC3)c3ccncc3)n2)o1 (stereo not given) |  | inconclusive: 39.8 µM [inhibitor, single point] |
| CC(=O)NC1CCCN(O)C(=O)/C=C(\C)CCOC(=O)C(NC(C)=O)CCCN(O)C(=O)/C=C(\C)CCOC(=O)C(NC(C)=O)CCCN(O)C(=O)/C=C(\C)CCOC1=O (stereo not given) | inactive: 77.8% |  |
| CNc1ccc(Br)cc(C(=O)/C=C/c2ccc(OC)cc2OC)c1=O |  | inconclusive: 31.6 µM [inhibitor, full curve] |
| CCCn1c2ccccc2c2cnn(CC(=O)NCC3CCN(Cc4ccc(F)cc4)CC3)c(=O)c21 | inactive: -21.3% |  |
| COc1cc(CCC(=O)NNC(=O)c2ccc(C)cc2)cc(OC)c1OC | inactive: 49.7% |  |
